Measured values: the supplement of paper PMC11125491
± gives the standard deviation of the averaged measurements. Growth of baker's yeast expressing single-residue variants of Pneumocystis jirovecii dihydrofolate reductase in 8.8 or 44 µM methotrexate (about 75% and 90% inhibition of the wild type). Selection coefficient per generation; 0 = like wild type, above 0 = less sensitive, below 0 = more sensitive or loss of function. No active / inactive call per row; the paper calls resistant above 0.220 (8.8 µM) or 0.243 (44 µM) together with a significance test. At 44 µM about 15% of codons end with one read or none, so the lowest values are floors (replicate rank correlation 0.74; 0.94 at 8.8 µM).

B1: UniProt A0EPZ9; numbered along this chain (parent)
chain: MDWQKSLTLIVALTLSRGIGLKNDLPWKLKSDMMFFSRVTSGLLVTRSTGQMNVVLMGRKTWESLPAHSRPLKNRINVVISRQEVLDLGGGAYHARSLDDALALLSQIYDSTSKIQLNRVFVIGGGELCKAAMEHSRLNRIIATVIHNEVDCDVFFPIDFRSSQSCLPWRKQDHSVLEAWVGSKVPQGKINENGFIYEFEMWIRDI

Variants of: B1
Assay: selection coefficient against synonymous wild-type codons (log2 per generation); higher = faster growth than wild type
Settings: with Saccharomyces cerevisiae carrying the variant on a plasmid
Experimental: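 Pooled growth of yeast carrying single-residue variants of P. jirovecii dihydrofolate reductase (own DFR1 gene intact), two passages at 30 °C, three cultures, sequenced before and after. Codons with under 15 starting reads are left out; codons of one change are averaged.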

| Variant | selection coefficient against synonymous wild-type codons (log2) (methotrexate 8.8 µM) | selection coefficient against synonymous wild-type codons (log2) (methotrexate 44 µM) |
| --- | --- | --- |
| D2W | -0.0812 ± 0.11 | -0.119 ± 0.097 |
| D2Y | 0.0525 ± 0.1 | -0.0299 ± 0.093 |
| W3A | 0.357 ± 0.04 | 0.324 ± 0.097 |
| W3C | 0.0397 ± 0.011 | 0.0894 ± 0.059 |
| W3D | 0.113 ± 0.031 | 0.159 ± 0.046 |
| W3E | 0.352 ± 0.024 | 0.388 ± 0.036 |
| W3F | -0.122 ± 0.067 | 0.137 ± 0.072 |
| W3G | 0.314 ± 0.11 | 0.332 ± 0.12 |
| W3H | 0.167 ± 0.025 | 0.178 ± 0.018 |
| W3I | 0.0471 ± 0.025 | 0.0291 ± 0.098 |
| W3K | 0.265 ± 0.01 | 0.269 ± 0.0099 |
| W3L | -0.0307 ± 0.065 | 0.0209 ± 0.1 |
| W3M | 0.392 ± 0.029 | 0.423 ± 0.043 |
| W3N | 0.247 ± 0.035 | 0.222 ± 0.063 |
| W3P | 0.21 ± 0.079 | 0.22 ± 0.13 |
| W3Q | 0.337 ± 0.018 | 0.378 ± 0.013 |
| W3R | 0.218 ± 0.13 | 0.238 ± 0.13 |
| W3S | 0.239 ± 0.017 | 0.194 ± 0.068 |
| W3T | 0.322 ± 0.026 | 0.369 ± 0.041 |
| W3V | 0.214 ± 0.069 | 0.23 ± 0.07 |
| W3Y | -0.0177 ± 0.1 | 0.041 ± 0.11 |
| Q4A | -0.168 ± 0.094 | -0.255 ± 0.12 |
| Q4C | -0.0888 ± 0.092 | -0.0945 ± 0.11 |

| Variant | selection coefficient against synonymous wild-type codons (log2) (methotrexate 8.8 µM) | selection coefficient against synonymous wild-type codons (log2) (methotrexate 44 µM) |
| --- | --- | --- |
| Q4D | 0.0408 ± 0.014 | 0.106 ± 0.036 |
| Q4E | -0.07 ± 0.023 | -0.0241 ± 0.067 |
| Q4F | -0.402 ± 0.14 | -0.147 ± 0.083 |
| Q4G | -0.128 ± 0.077 | -0.0968 ± 0.053 |
| Q4H | -0.108 ± 0.025 | -0.0372 ± 0.046 |
| Q4I | -0.449 ± 0.068 | -0.243 ± 0.0095 |
| Q4K | -0.177 ± 0.093 | -0.261 ± 0.06 |
| Q4L | -0.217 ± 0.099 | -0.223 ± 0.13 |
| Q4M | 0.345 ± 0.034 | 0.351 ± 0.0076 |
| Q4N | -0.0768 ± 0.067 | -0.0696 ± 0.088 |
| Q4P | 0.00842 ± 0.086 | -0.0187 ± 0.11 |
| Q4R | -0.297 ± 0.11 | -0.254 ± 0.15 |
| Q4S | -0.122 ± 0.072 | -0.0722 ± 0.12 |
| Q4T | -0.0676 ± 0.039 | -0.0459 ± 0.1 |
| Q4V | -0.389 ± 0.17 | -0.25 ± 0.096 |
| Q4W | -0.373 ± 0.14 | -0.348 ± 0.043 |
| Q4Y | -0.3 ± 0.06 | -0.0853 ± 0.14 |
| K5A | 0.211 ± 0.11 | 0.234 ± 0.084 |
| K5C | -0.295 ± 0.033 | -0.285 ± 0.19 |
| K5D | 0.374 ± 0.028 | 0.371 ± 0.06 |
| K5E | -0.00561 ± 0.053 | 0.0804 ± 0.009 |
| K5F | 0.329 ± 0.042 | 0.267 ± 0.029 |
| K5G | 0.174 ± 0.14 | 0.201 ± 0.13 |

| Variant | selection coefficient against synonymous wild-type codons (log2) (methotrexate 8.8 µM) | selection coefficient against synonymous wild-type codons (log2) (methotrexate 44 µM) |
| --- | --- | --- |
| K5H | 0.281 ± 0.03 | 0.307 ± 0.064 |
| K5I | 0.3 ± 0.018 | 0.188 ± 0.061 |
| K5L | -0.134 ± 0.062 | -0.14 ± 0.17 |
| K5M | 0.367 ± 0.037 | 0.373 ± 0.034 |
| K5N | 0.565 ± 0.04 | 0.603 ± 0.032 |
| K5P | 0.232 ± 0.075 | 0.306 ± 0.19 |
| K5Q | -0.0819 ± 0.083 | -0.0462 ± 0.062 |
| K5R | -0.0842 ± 0.084 | -0.148 ± 0.13 |
| K5S | 0.163 ± 0.12 | 0.178 ± 0.12 |
| K5T | 0.148 ± 0.15 | 0.191 ± 0.16 |
| K5V | 0.0757 ± 0.11 | 0.0453 ± 0.11 |
| K5W | -0.401 ± 0.087 | -0.269 ± 0.13 |
| K5Y | 0.37 ± 0.032 | 0.38 ± 0.039 |
| S6A | -0.0126 ± 0.065 | -0.0316 ± 0.13 |
| S6C | 0.0184 ± 0.055 | -0.0043 ± 0.029 |
| S6D | 0.653 ± 0.023 | 0.705 ± 0.0054 |
| S6E | 0.497 ± 0.023 | 0.489 ± 0.025 |
| S6F | -0.413 ± 0.073 | -0.099 ± 0.098 |
| S6G | 0.425 ± 0.02 | 0.493 ± 0.039 |
| S6H | 0.386 ± 0.025 | 0.295 ± 0.021 |
| S6K | 0.233 ± 0.046 | 0.17 ± 0.058 |
| S6L | -0.378 ± 0.13 | -0.113 ± 0.21 |
| S6M | 0.423 ± 0.018 | 0.31 ± 0.054 |

| Variant | selection coefficient against synonymous wild-type codons (log2) (methotrexate 8.8 µM) | selection coefficient against synonymous wild-type codons (log2) (methotrexate 44 µM) |
| --- | --- | --- |
| S6N | 0.683 ± 0.034 | 0.765 ± 0.047 |
| S6P | 0.16 ± 0.068 | 0.0758 ± 0.11 |
| S6Q | 0.213 ± 0.026 | 0.142 ± 0.042 |
| S6R | 0.0844 ± 0.083 | 0.0596 ± 0.15 |
| S6T | 0.21 ± 0.13 | 0.107 ± 0.15 |
| S6V | -0.4 ± 0.11 | -0.053 ± 0.21 |
| S6W | -0.226 ± 0.042 | -0.066 ± 0.17 |
| S6Y | -0.0843 ± 0.16 | -0.0966 ± 0.18 |
| L7A | 0.0434 ± 0.057 | 0.0277 ± 0.084 |
| L7C | 0.0773 ± 0.03 | -0.00323 ± 0.029 |
| L7D | -0.55 ± 0.14 | -0.344 ± 0.071 |
| L7E | -0.363 ± 0.08 | -0.368 ± 0.018 |
| L7F | 0.156 ± 0.027 | 0.115 ± 0.11 |
| L7G | -0.184 ± 0.055 | -0.148 ± 0.067 |
| L7H | -0.228 ± 0.043 | -0.166 ± 0.13 |
| L7I | -0.0801 ± 0.087 | -0.108 ± 0.15 |
| L7K | -0.497 ± 0.092 | -0.377 ± 0.021 |
| L7M | -0.159 ± 0.11 | -0.0575 ± 0.078 |
| L7N | -0.252 ± 0.032 | -0.18 ± 0.068 |
| L7P | -0.273 ± 0.13 | -0.192 ± 0.062 |
| L7Q | -0.294 ± 0.037 | -0.238 ± 0.13 |
| L7R | -0.411 ± 0.093 | -0.28 ± 0.13 |
| L7S | -0.257 ± 0.11 | -0.179 ± 0.16 |

| Variant | selection coefficient against synonymous wild-type codons (log2) (methotrexate 8.8 µM) | selection coefficient against synonymous wild-type codons (log2) (methotrexate 44 µM) |
| --- | --- | --- |
| L7T | -0.0853 ± 0.12 | -0.016 ± 0.081 |
| L7V | -0.0576 ± 0.044 | -0.0215 ± 0.096 |
| L7W | -0.0197 ± 0.022 | -0.0409 ± 0.025 |
| L7Y | -0.112 ± 0.1 | -0.121 ± 0.12 |
| T8A | -0.402 ± 0.13 | -0.31 ± 0.083 |
| T8C | -0.118 ± 0.029 | -0.275 ± 0.15 |
| T8D | -0.195 ± 0.061 | -0.169 ± 0.029 |
| T8E | -0.132 ± 0.082 | -0.0181 ± 0.05 |
| T8F | -0.376 ± 0.12 | -0.28 ± 0.054 |
| T8G | -0.305 ± 0.079 | -0.182 ± 0.14 |
| T8H | -0.185 ± 0.17 | -0.0863 ± 0.12 |
| T8I | -0.246 ± 0.1 | -0.097 ± 0.06 |
| T8K | -0.562 ± 0.059 | -0.357 ± 0.02 |
| T8L | -0.471 ± 0.21 | -0.191 ± 0.18 |
| T8M | -0.553 ± 0.076 | -0.129 ± 0.043 |
| T8N | -0.191 ± 0.027 | -0.203 ± 0.16 |
| T8P | -0.49 ± 0.071 | -0.254 ± 0.055 |
| T8Q | -0.179 ± 0.048 | -0.214 ± 0.24 |
| T8R | -0.513 ± 0.11 | -0.259 ± 0.059 |
| T8S | -0.228 ± 0.082 | -0.173 ± 0.14 |
| T8V | -0.135 ± 0.055 | -0.136 ± 0.041 |
| T8W | -0.409 ± 0.082 | -0.271 ± 0.17 |
| T8Y | -0.398 ± 0.15 | -0.269 ± 0.13 |
